# Source: the supplement of paper PMC8728848
# Some of the results follow.
# B1: Pp2-A2 (Arabidopsis thaliana), Q07098 (protein)
# chain: MPSNGDLDRQIEQLMECKPLSEADVRTLCDQARAILVEEYNVQPVKCPVTVCGDIHGQFYDLIELFRIGGNAPDTNYLFMGDYVDRGYYSVETVSLLVALKVRYRDRLTILRGNHESRQITQVYGFYDECLRKYGNANVWKYFTDLFDYLPLTALIESQVFCLHGGLSPSLDTLDNIRSLDRIQEVPHEGPMCDLLWSDPDDRCGWGISPRGAGYTFGQDIAAQFNHNNGLSLISRAHQLVMEGFNWCQDKNVVTVFSAPNYCYRCGNMAAILEIGENMEQNFLQFDPAPRQVEPDTTRKTPDYFL
# Legend:
# Assay in all cases: glycan array binding signal (z-score within array); higher = stronger binding
# Details in all cases: glycan notation: IUPAC condensed, linker removed
# [1] = biological target: Neu5Ac(a2-6)Gal(b1-4)GlcNAc(b1-2)Man(a1-3)Man(b1-4)GlcNAc(b1-4)GlcNAc
# Method in brief: (§1)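 The Consortium for Functional Glycomics database supplied 3228 glycan arrays, of which those lacking an available protein sequence were dropped. The binding signal, a within-array Z-score, was averaged across arrays of the same protein sequence and across linkers. Negative scores can be read as non-binding.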
# [2] = biological target: Neu5Ac(a2-6)Gal(b1-4)GlcNAc(b1-2)Man(a1-3)[Gal(b1-4)GlcNAc(b1-2)Man(a1-6)]Man(b1-4)GlcNAc(b1-4)GlcNAc
# Method in brief: as §1
# [3] = biological target: Neu5Ac(a2-6)Gal(b1-4)GlcNAc(b1-2)Man(a1-3)[GlcNAc(b1-2)Man(a1-6)]Man(b1-4)GlcNAc(b1-4)GlcNAc
# Method in brief: as §1
# [4] = biological target: Neu5Ac(a2-6)Gal(b1-4)GlcNAc(b1-2)Man(a1-3)[GlcNAc(b1-2)Man(b1-4)GlcNAc(b1-2)Man(a1-6)]Man(b1-4)GlcNAc(b1-4)GlcNAc
# Method in brief: as §1
# [5] = biological target: Neu5Ac(a2-6)Gal(b1-4)GlcNAc(b1-2)Man(a1-3)[Man(a1-6)]Man(b1-4)GlcNAc(b1-4)GlcNAc
# Method in brief: as §1
# [6] = biological target: Neu5Ac(a2-6)Gal(b1-4)GlcNAc(b1-2)Man(a1-3)[Neu5Ac(a2-6)Gal(b1-4)GlcNAc(b1-2)Man(a1-6)]Man(b1-4)GlcNAc(b1-4)GlcNAc
# Method in brief: as §1
# [7] = biological target: Neu5Ac(a2-6)Gal(b1-4)GlcNAc(b1-2)Man(a1-6)Man(b1-4)GlcNAc(b1-4)GlcNAc
# Method in brief: as §1
# [8] = biological target: Neu5Ac(a2-6)Gal(b1-4)GlcNAc(b1-2)Man(a1-6)[Gal(b1-4)GlcNAc(b1-2)Man(a1-3)]Man(b1-4)GlcNAc(b1-4)GlcNAc
# Method in brief: as §1
# [9] = biological target: Neu5Ac(a2-6)Gal(b1-4)GlcNAc(b1-2)Man(a1-6)[GlcNAc(b1-2)Man(a1-3)]Man(b1-4)GlcNAc(b1-4)GlcNAc
# Method in brief: as §1
# [10] = biological target: Neu5Ac(a2-6)Gal(b1-4)GlcNAc(b1-2)Man(a1-6)[Man(a1-3)]Man(b1-4)GlcNAc(b1-4)GlcNAc
# Method in brief: as §1
# [11] = biological target: Neu5Ac(a2-6)Gal(b1-4)GlcNAc(b1-3)Gal(b1-3)GlcNAc
# Method in brief: as §1
# [12] = biological target: Neu5Ac(a2-6)Gal(b1-4)GlcNAc(b1-3)Gal(b1-4)GlcNAc
# Method in brief: as §1
# [13] = biological target: Neu5Ac(a2-6)Gal(b1-4)GlcNAc(b1-3)Gal(b1-4)GlcNAc(b1-3)Gal(b1-4)GlcNAc
# Method in brief: as §1
# [14] = biological target: Neu5Ac(a2-6)Gal(b1-4)GlcNAc(b1-3)Gal(b1-4)[Fuc(a1-3)]GlcNAc(b1-3)Gal(b1-4)[Fuc(a1-3)]GlcNAc
# Method in brief: as §1
# [15] = biological target: Neu5Ac(a2-6)Gal(b1-4)GlcNAc(b1-3)GalNAc
# Method in brief: as §1
# [16] = biological target: Neu5Ac(a2-6)Gal(b1-4)GlcNAc6S
# Method in brief: as §1
# [17] = biological target: Neu5Ac(a2-6)GalNAc
# Method in brief: as §1
# [18] = biological target: Neu5Ac(a2-6)GalNAc(b1-4)GlcNAc
# Method in brief: as §1
# [19] = biological target: Neu5Ac(a2-6)GlcNAc(b1-4)GlcNAc
# Method in brief: as §1
# [20] = biological target: Neu5Ac(a2-6)GlcNAc(b1-4)GlcNAc(b1-4)GlcNAc
# Method in brief: as §1
# [21] = biological target: Neu5Ac(a2-8)Neu5Ac
# Method in brief: as §1
# [22] = biological target: Neu5Ac(a2-8)Neu5Ac(a2-3)Gal(b1-4)Glc
# Method in brief: as §1
# [23] = biological target: Neu5Ac(a2-8)Neu5Ac(a2-3)[GalNAc(b1-4)]Gal(b1-4)Glc
# Method in brief: as §1
# [24] = biological target: Neu5Ac(a2-8)Neu5Ac(a2-8)Neu5Ac
# Method in brief: as §1
# [25] = biological target: Neu5Ac(a2-8)Neu5Ac(a2-8)Neu5Ac(a2-3)Gal(b1-4)Glc
# Method in brief: as §1
# [26] = biological target: Neu5Ac(a2-8)Neu5Ac(a2-8)Neu5Ac(a2-3)[GalNAc(b1-4)]Gal(b1-4)Glc
# Method in brief: as §1
# [27] = biological target: Neu5Ac(a2-8)Neu5Ac(a2-8)Neu5Ac(a2-8)Neu5Ac(a2-3)[GalNAc(b1-4)]Gal(b1-4)Glc
# Method in brief: as §1
# [28] = biological target: Neu5Ac(b2-6)Gal(b1-4)GlcNAc
# Method in brief: as §1
# [29] = biological target: Neu5Ac(b2-6)GalNAc
# Method in brief: as §1
# [30] = biological target: Neu5Ac9Ac(a2-3)Gal(b1-3)GlcNAc
# Method in brief: as §1
# [31] = biological target: Neu5Ac9Ac(a2-3)Gal(b1-4)GlcNAc
# Method in brief: as §1
# [32] = biological target: Neu5Ac9Ac(a2-6)Gal(b1-4)GlcNAc
# Method in brief: as §1
# [33] = biological target: Neu5Gc(a2-3)Gal(b1-3)GlcNAc
# Method in brief: as §1
# [34] = biological target: Neu5Gc(a2-3)Gal(b1-3)[Fuc(a1-4)]GlcNAc
# Method in brief: as §1
# [35] = biological target: Neu5Gc(a2-3)Gal(b1-4)Glc
# Method in brief: as §1
# [36] = biological target: Neu5Gc(a2-3)Gal(b1-4)GlcNAc
# Method in brief: as §1
# [37] = biological target: Neu5Gc(a2-3)Gal(b1-4)[Fuc(a1-3)]GlcNAc
# Method in brief: as §1
# [38] = biological target: Neu5Gc(a2-6)Gal(b1-4)GlcNAc
# Method in brief: as §1
# [39] = biological target: Neu5Gc(a2-6)GalNAc
# Method in brief: as §1
# [40] = biological target: Neu5Gc(b2-6)Gal(b1-4)GlcNAc
# Method in brief: as §1
binder,measurement,setting,value
B1,glycan array binding signal (z-score),[1],-0.603
same,glycan array binding signal (z-score),[2],-0.447
same,glycan array binding signal (z-score),[3],-0.55
same,glycan array binding signal (z-score),[4],-0.553
same,glycan array binding signal (z-score),[5],-0.41
same,glycan array binding signal (z-score),[6],-0.571
same,glycan array binding signal (z-score),[7],-0.465
same,glycan array binding signal (z-score),[8],-0.588
same,glycan array binding signal (z-score),[9],-0.642
same,glycan array binding signal (z-score),[10],-0.69
same,glycan array binding signal (z-score),[11],0.016
same,glycan array binding signal (z-score),[12],-0.011
same,glycan array binding signal (z-score),[13],-0.081
same,glycan array binding signal (z-score),[14],0.021
same,glycan array binding signal (z-score),[15],0.4
same,glycan array binding signal (z-score),[16],1.03
same,glycan array binding signal (z-score),[17],-0.052
same,glycan array binding signal (z-score),[18],-0.57
same,glycan array binding signal (z-score),[19],-0.475
same,glycan array binding signal (z-score),[20],-0.102
same,glycan array binding signal (z-score),[21],0.344
same,glycan array binding signal (z-score),[22],-0.442
same,glycan array binding signal (z-score),[23],-0.197
same,glycan array binding signal (z-score),[24],-0.23
same,glycan array binding signal (z-score),[25],-0.234
same,glycan array binding signal (z-score),[26],0.265
same,glycan array binding signal (z-score),[27],-0.215
same,glycan array binding signal (z-score),[28],0.004
same,glycan array binding signal (z-score),[29],0.465
same,glycan array binding signal (z-score),[30],-0.272
same,glycan array binding signal (z-score),[31],-0.605
same,glycan array binding signal (z-score),[32],-0.859
same,glycan array binding signal (z-score),[33],-0.253
same,glycan array binding signal (z-score),[34],-0.001
same,glycan array binding signal (z-score),[35],-0.148
same,glycan array binding signal (z-score),[36],-0.053
same,glycan array binding signal (z-score),[37],0.068
same,glycan array binding signal (z-score),[38],-0.534
same,glycan array binding signal (z-score),[39],-0.235
same,glycan array binding signal (z-score),[40],0.017
